{"source": "PubChem BioAssay AID686979", "about": "(National Center for Advancing Translational Sciences (NCATS), 2013)", "note": "“And” between values parts separate entries of the source, which are not always exact repeats. Equal entries are not always repeated. Hit rate of the full screen: of about 420,000 compounds, about 50,000 (12%) were called active. This list was built around the results that the source calls inconclusive (neither active nor inactive); the mix of calls is not that of the screen. The call rests on the fitted dose curve; in most records, active means well fitted inhibition curve with a large enough effect; inconclusive means small, poorly fitted or top-dose-only effect; inactive means flat fitted curve, though single readings scatter. Potencies of inconclusive entries are left out as doubtful fits. A structure can be active in one record and inactive in another. On the % scale 0 is the no-effect control and ±100 the full control effect; potency means the concentration at half of the fitted maximal effect; tags describe the fitted curve by direction and shape."}
{"experiment": "qHTS for Inhibitors of human tyrosyl-DNA phosphodiesterase 1 (TDP1): qHTS in cells in presence of CPT; further: nearly all actives have a fitted effect of over 55% in size", "conditions": "chicken DT40 Tdp1-/-;hTDP1 cells + 20 nM CPT, ATP luminescence, 48 h; activity change, negative = growth inhibition: at 46.2 µM (top of the series) unless noted", "procedure,_shortened": "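Chicken DT40 Tdp1-/- cells complemented with human TDP1, 400 cells/well, exposed to compounds plus 20 nM camptothecin for at least 48 h at 37 C; viability read as ATP content by CellTiter-Glo luminescence.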"}
{"smiles": "O=C(COc1ccccc1C(=O)Nc1ccccc1)Nc1ccccc1Br", "Potency": "inconclusive [inhibitor, single point]"}
{"smiles": "COc1ccc2c(c1)CSC(c1ccccc1)C2=O", "note": "(stereo unspecified)", "Potency": "inconclusive [inhibitor, single point]"}
{"smiles": "Cc1cc(C)cc(NC(=O)N2CCNC(=O)C2CC(=O)Nc2cc(Cl)ccc2Cl)c1", "note": "(stereo unspecified)", "Potency": "inconclusive [inhibitor, single point]"}
{"smiles": "CC(C)(C)N(Cc1cc2ccccc2[nH]c1=O)C(=O)C1CCCCC1", "Potency": "inconclusive [inhibitor, single point]"}
{"smiles": "COc1ccc(N(CC(=O)N2c3ccccc3CC2C)S(=O)(=O)c2c(C)nn(C)c2C)cc1", "note": "(stereo unspecified)", "Potency": "inconclusive [inhibitor, single point]"}
{"smiles": "CNc1oc(/C=C/c2ccccc2)nc1C#N", "Potency": "inactive"}
{"smiles": "Cc1nnc(SCc2cc(=O)n3cccc(C)c3n2)s1", "Potency": "inconclusive [inhibitor, full curve, poor fit]"}
{"smiles": "Cc1nn2c(C)c(C(=O)N3CCN(c4ccccc4F)CC3)cnc2c1-c1ccc(F)cc1", "Potency": "inconclusive [inhibitor, single point]"}
{"smiles": "COC(=O)c1cccc(CN2C(=O)C(C)Sc3ccc(C)cc32)c1", "note": "(stereo unspecified)", "Potency": "inconclusive [inhibitor, partial curve, poor fit]"}
{"smiles": "Nc1nc2ncc(C(=O)c3cc(F)ccc3O)cc2s1", "activity change, negative = growth inhibition": "inconclusive: -32.6% [inhibitor]"}
{"smiles": "CCOc1cc(C(=O)Nc2ccc3nc(Nc4cccc(Cl)c4)cc(C)c3c2)cc(OCC)c1OCC", "Potency": "active: 4.61 µM"}
{"smiles": "COCCCNC(=O)c1ccc(Cn2c(=O)c3ccccc3n(CC(=O)Nc3c(C)cccc3C)c2=O)cc1", "Potency": "inconclusive [inhibitor, partial curve, poor fit]"}
{"smiles": "CS(=O)(=O)N1CCN(c2ccc([N+](=O)[O-])c(NCc3ccccc3)c2)CC1", "Potency": "inconclusive [inhibitor, single point]"}
{"smiles": "Cc1c(C)c(C)c2[nH]c(-c3ccc4c(c3)OCO4)nc2c1C", "Potency": "inconclusive [inhibitor, single point]"}
{"smiles": "CC1CC(NC(=O)CCn2c(=O)oc3ccccc32)CC(C)(C)C1", "note": "(stereo unspecified)", "Potency": "inactive"}
{"smiles": "Cc1cc(C(=O)NCc2ccccc2)no1", "activity change, negative = growth inhibition": "inconclusive: -31.8% [inhibitor]"}
{"smiles": "Cc1ccc(NC(=O)c2noc3c2CCC3)cc1C", "Potency": "inactive"}
{"smiles": "CC(C)C(c1nnnn1C(C)(C)C)N1CCC(Cc2ccccc2)CC1", "note": "(stereo unspecified)", "Potency": "inconclusive [inhibitor, single point]"}
{"smiles": "CC1Cc2[nH][nH]c(=O)c2C(C2CC2)O1", "note": "(stereo unspecified)", "Potency": "inactive"}
{"smiles": "COc1cccc(-c2nc(CS(=O)(=O)CC(=O)NCCc3ccc(OC)cc3OC)c(C)o2)c1", "Potency": "active: 18.4 µM"}
{"smiles": "CCCC(CCC)C(=O)Nc1cccc(-c2nc3cccnc3s2)c1C", "Potency": "inactive"}
{"smiles": "COc1ccc(N(CC(=O)Nc2cc([N+](=O)[O-])ccc2C)S(C)(=O)=O)cc1OC", "activity change, negative = growth inhibition": "inconclusive: -14.5% [inhibitor]"}
{"smiles": "CCCC(=O)NC(c1ccc(C)cc1)c1ccc2cccnc2c1O", "note": "(stereo unspecified)", "Potency": "active: 2.31 µM"}
{"smiles": "OCC1(Cc2cccc(C(F)(F)F)c2)CCN(Cc2cc3ccccc3o2)CC1", "Potency": "inconclusive [inhibitor, single point]"}
{"smiles": "O=C(Nc1ccc(S(=O)(=O)N2CCOCC2)cc1)C1CCN(S(=O)(=O)c2ccccc2)CC1", "Potency": "inconclusive [inhibitor, partial curve]"}
{"smiles": "Cc1ccc(S(=O)(=O)Nc2cccc(C(=O)NCC(c3ccco3)N3CCCCC3)c2)cc1F", "note": "(stereo unspecified)", "Potency": "inconclusive [inhibitor, partial curve]"}
{"smiles": "CSc1ccc(OC2CCCCC2NS(=O)(=O)c2ccccc2)cc1", "note": "(stereo unspecified)", "Potency": "inconclusive [inhibitor, single point]"}
{"smiles": "COc1ccc(-c2nc(C(N)=O)c3[nH]c(=O)n(-c4cccc(Cl)c4)c3n2)cc1OC", "Potency": "inconclusive [inhibitor, single point]"}
{"smiles": "O=S(=O)(NCC(c1cccnc1)N1CCN(c2ccc(F)cc2)CC1)c1cc(F)ccc1F", "note": "(stereo unspecified)", "Potency": "inconclusive [inhibitor, single point]"}
{"smiles": "O=c1c(O)c(-c2ccc(O)c(O)c2)oc2cc(O)ccc12", "Potency": "active: 5.96 µM and active: 23.1 µM"}
{"smiles": "Cc1cccc(Sc2c(C=O)c3ccccc3n2C)c1", "Potency": "inactive"}
{"smiles": "COc1ccc(/C=C/C(=O)OCC(=O)Nc2cc(C(F)(F)F)ccc2Cl)cc1", "Potency": "inconclusive [inhibitor, single point]"}
{"smiles": "CCC(C)NC(=O)CCc1c(C)nc2c(c(C)nn2-c2ccccc2)c1C", "note": "(stereo unspecified)", "Potency": "active: 10.3 µM"}
{"smiles": "C=CCNc1nc(NC2CCN(C)CC2)c2cc(OC)c(OC)cc2n1", "Potency": "active: 12.6 µM"}
{"smiles": "Cc1cc(C)cc(NC(=O)CCc2c(C)nn(-c3ccc(N4CCCCC4)nn3)c2C)c1", "Potency": "inconclusive [inhibitor, single point]"}
{"smiles": "O=C(N/N=C/c1ccco1)c1ccc(NC(=O)c2ccc(Cl)cc2)cc1", "Potency": "inactive"}
{"smiles": "COc1ccc(Cl)cc1NC(=O)CSC1=Nc2ccccc2C2=NC(CCC(=O)NCc3ccc(F)cc3)C(=O)N12", "note": "(stereo unspecified)", "Potency": "active: 23.1 µM"}
{"smiles": "CCOC(=O)c1ccc(NC(=O)c2cnn(-c3ccc(C)cc3C)c2C2CCN(C(=O)OC(C)(C)C)CC2)cc1", "Potency": "inconclusive [inhibitor, single point]"}
{"smiles": "COc1ccc(C2=Nc3ccccc3NC(=O)C2N(Cc2ccccc2)C(=O)C2=NNC(=O)CC2)cc1", "note": "(stereo unspecified)", "Potency": "inconclusive [inhibitor, single point]"}
{"smiles": "CNS(=O)(=O)Cc1ccc2[nH]cc(CCN(C)C)c2c1", "Potency": "active: 5.8 µM"}
{"smiles": "O=C(Nc1ccc(F)c(Cl)c1)C1CCN(C(=O)c2ccc(F)cc2)CC1", "Potency": "inconclusive [inhibitor, single point]"}
{"smiles": "N#Cc1ccccc1Cn1c(=O)n(CCCC(=O)NCc2ccccc2Cl)c(=O)c2ccccc21", "Potency": "inconclusive [inhibitor, single point]"}
{"smiles": "CSCCC(NC(=O)c1ccc([N+](=O)[O-])cc1Cl)C(=O)OCC(=O)C12CC3CC(CC(C3)C1)C2", "note": "(stereo unspecified)", "Potency": "inconclusive [inhibitor, partial curve, poor fit]"}
{"smiles": "CCOc1cc(-c2cc(-c3ccc(N)cc3)nc(N)c2C#N)ccc1O", "Potency": "active: 14.6 µM"}
{"smiles": "Cc1ccsc1-c1nc(CN2C[C@@H](C)O[C@@H](C)C2)c(C)o1", "Potency": "inconclusive [inhibitor, single point]"}
{"smiles": "CCCCCCCCNc1ccccc1S(=O)(=O)NCc1ccccc1", "Potency": "inconclusive [inhibitor, single point]"}
{"smiles": "CCOCc1c(C(=O)NCC(c2ccco2)N2CCCC2)oc2ccccc12", "note": "(stereo unspecified)", "Potency": "active: 23.1 µM"}
{"smiles": "COc1cccc(NC(=O)c2cc(C(=O)Nc3cccc(OC)c3)n(C)n2)c1", "Potency": "inconclusive [inhibitor, single point]"}
{"smiles": "Cc1cccc(NS(=O)(=O)c2ccc(-c3cnc(C4CC4)o3)cc2)c1", "Potency": "active: 0.731 µM"}
{"smiles": "COc1cccc(/C=C2\\C(=O)N(c3cccc(C)c3)C(=O)c3ccccc32)c1", "Potency": "active: 25.9 µM"}
{"smiles": "CC1=C(C(=O)N2CCCCCC2)CC(CC(=O)NCCN2CCOCC2)C(=O)N1CCCN1CCCC1=O", "note": "(stereo unspecified)", "Potency": "inactive"}
{"smiles": "Cc1ccc([N+](=O)[O-])cc1-c1ccc2cccc(C)c2n1", "Potency": "inconclusive [inhibitor, single point]"}
{"smiles": "C[C@H](CO)N1C[C@H](C)[C@H](CN(C)Cc2ccc(Oc3ccccc3)cc2)Oc2ccc(NC(=O)Nc3cccc4ccccc34)cc2CC1=O", "Potency": "inconclusive [inhibitor, single point]"}
{"smiles": "NC(=S)N=Nc1c(O)n(CCCl)c2ccc(Br)cc12", "Potency": "active: 16.4 µM"}
{"smiles": "CCn1c(SCC(=O)N/N=C/c2ccccc2OCC(=O)O)nnc1-c1ccc(C(C)(C)C)cc1", "Potency": "inactive"}
{"smiles": "Cc1[nH]c2ccccc2c1C(=O)C(C)OC(=O)c1ccc(Cl)nc1", "note": "(stereo unspecified)", "Potency": "inconclusive [inhibitor, partial curve]"}
{"smiles": "CCOC(=O)[C@]12CCCC=C1N(Cc1ccc3c(c1)OCO3)C(=O)[C@H](CC(=O)N1CCSCC1)C2", "Potency": "inconclusive [inhibitor, partial curve]"}
{"smiles": "CN1CCN(c2ccccc2NC(=O)COc2ccc(Br)cc2)CC1", "Potency": "inconclusive [inhibitor, partial curve]"}
{"smiles": "COc1ccc(C2CCCCCN2C(=O)C2CCN(S(=O)(=O)c3cccc(C(C)=O)c3)CC2)cc1", "note": "(stereo unspecified)", "Potency": "inconclusive [inhibitor, single point]"}
{"smiles": "Cc1ccc(S(=O)(=O)Nc2ccc(C(OC(=O)c3ccccc3[N+](=O)[O-])(C(F)(F)F)C(F)(F)F)cc2)cc1", "Potency": "inconclusive [inhibitor, single point]"}
{"smiles": "COc1ccc(C2CC(c3cccc(C)c3)n3nc(N)nc3N2)cc1", "note": "(stereo unspecified)", "Potency": "inconclusive [inhibitor, single point]"}
{"smiles": "CCc1sc(C(=O)NC2CCN(C)CC2)cc1Br", "Potency": "inactive"}
{"smiles": "Cn1c(-n2cccc2)c(-c2c(-c3ccccc3)[nH]c3c2c(=O)n(C)c(=O)n3C)c(=O)n(C)c1=O", "Potency": "inactive"}
{"smiles": "CCOC(=O)c1c(NC(=O)CSc2nnc(Cc3ccccc3)o2)sc(C(C)=O)c1C", "Potency": "active: 20.6 µM"}
{"smiles": "CCCCOC(=O)c1ccc(NC(=O)CSc2nc3c(c(=O)[nH]2)CCCC3)cc1", "Potency": "inconclusive [inhibitor, single point]"}
{"smiles": "CCOc1ccc2ccccc2c1C1NC(=S)N(C)C(C)=C1C(=O)OC", "note": "(stereo unspecified)", "Potency": "inconclusive [inhibitor, single point]"}
